The full ranking holds about 33,000 sequences; the median of “E-score (-0.5 to 0.5)” is about -0.016, and the highest 2% start at about 0.31. The list shows a part of the results.
target: Cst6 (UniProt P40535); assay: PBM E-score (8-mer binding enrichment) (E-score (-0.5 to 0.5)); higher = stronger / more preferred TF binding; most listed sequences are background and not binding sites; conditions: protein concentration: 200 nM; construct: GST-DNA-binding domain
Method in brief: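 For each ungapped eight-base word taken together with its reverse complement, the Universal PBM Analysis Suite assigned an E-score. Binding data came from GST-tagged yeast transcription factors, applied at about 100-200 nM, on universal all-10-mer Agilent arrays made double-stranded by primer extension. Fluorescent anti-GST marked bound protein, and scans were normalised with masliner.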

Sequence | PBM E-score
TAACGTTA | 0.149
CGAATACC | -0.16
AGATCCAA | -0.0337
GAACATGA | 0.0785
CCGCTTAC | -0.035
CGAAATTA | 0.192
CATCCCGG | -0.262
ACCTGTAG | -0.156
GTGGCAGA | -0.091
ATGTGCCG | 0.0266
ACAAGAAG | 0.184
ATAAGAGG | -0.00512
ATCGATTG | 0.162
AACGCCAG | 0.00194
GCAAGGGC | -0.343
CCGGCACC | -0.146
CTTATGCC | 0.0646
CACGCGCG | 0.0389
TTGCCAAA | 0.0215
AACCCTGA | 0.0815
TACAAACA | 0.203
CATGCCTA | -0.316
CCCTCGCC | -0.258
CGGTCCAC | -0.285

Sequence | PBM E-score
AAGAGCCG | 0.0758
GGGCACGA | -0.114
GCCCCGGC | -0.326
AGCTACTA | 0.0479
GACTTATC | -0.151
CACTTGAC | 0.0552
TAGAATGA | 0.221
ACCAGTCC | -0.426
ACTTTTTG | 0.142
GTACTACA | 0.172
ATCCCGAG | -0.0445
ATTAGGCC | -0.0871
GAGGAATA | 0.0369
CATGTTAA | 0.172
GCCGCGAC | -0.0175
AATCATCG | 0.039
GGGCGACA | -0.176
GTACAGGA | -0.0291
ACGCCGTG | 0.383
ACTGTAAT | 0.114
ATTCTCAC | 0.167
CTAGAGCA | -0.136
ATCTACTC | 0.0449
GCTATGCA | -0.0158

Sequence | PBM E-score
ATCGGAGG | -0.206
ACATGCGG | 0.174
AGTGGAGG | -0.119
AGAGACGC | -0.176
CGGTTGAA | 0.0202
TAATATTA | 0.391
CCTCTCGC | -0.293
ATCGCAAT | 0.0785
CCACATAA | 0.0581
CGGCGCAA | 0.184
ACGTCACT | 0.495
CTCACTTC | -0.243
GATTTGGC | -0.102
AGCATAGA | -0.0923
ATGCCCGA | -0.155
CCCATTTA | 0.0685
CACAAGCC | -0.104
CGACGATC | 0.0483
AACAGTGT | -0.00381
CGCGACAA | 0.14
AGCCACAT | 0.123
GATACACC | 0.104
AGGCCGGA | -0.257
ACGAACGT | 0.0376

Sequence | PBM E-score
CATAGACG | 0.00338
GAAGTCTC | -0.205
CGGAAACA | -0.0803
CGAGGGCC | -0.302
AAAGGAGG | -0.177
CAATAATC | 0.085
ATGATCAT | 0.198
ATGGGGTC | -0.168
TGAGGTAA | 0.414
CGTAAACC | -0.0197
CGTCAAGA | 0.178
TAGACCTA | -0.159
CTTCTTTC | -0.195
GCGCGAGA | 0.0429
GCTTAAGC | -0.18
CTCGGATA | 0.036
GCGCTTGA | 0.0619
ACTGAAGG | -0.174
AAACCTGA | 0.0656
ACGCACGC | 0.142
CGTAGCCA | -0.0816
CAGTGCAG | -0.191
